# Some of the results follow.
# Molecular target: T1, OsWOX13 (Oryza sativa, UniProt Q5QMM3 1-267)
# T1 sequence: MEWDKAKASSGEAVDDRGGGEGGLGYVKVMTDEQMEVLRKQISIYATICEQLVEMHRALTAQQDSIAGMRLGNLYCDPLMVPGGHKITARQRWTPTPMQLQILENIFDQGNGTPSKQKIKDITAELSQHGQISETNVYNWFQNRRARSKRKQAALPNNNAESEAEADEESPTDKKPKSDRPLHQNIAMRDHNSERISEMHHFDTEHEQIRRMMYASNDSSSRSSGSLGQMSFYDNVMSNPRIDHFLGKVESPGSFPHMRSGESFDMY
# Assay: protein-binding microarray (RPBM); PBS, 2% BSA, 51.3 ng/ul salmon testes DNA, 50 uM zinc acetate, 200 nM TF, 25 C, 1 h; high values mean tight binding
# Conditions: protein: recombinant; tags: N-terminal polyhistidine and DsRed monomer fusion (pET32a); label: CyDye5-dUTP incorporated in the synthesized complementary strand; 3' TTTTT single-stranded linker to array surface; dsDNA, one strand shown
# Summary of the method: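 The binding signal is fluorescence intensity per array feature (arbitrary units). Readings came from an Axon 4000B scanner after a washed, 2% BSA-blocked, double-stranded custom Agilent array had been incubated for 1 h at 25 °C with 200 nM protein and 50 µM zinc acetate. The protein was a Ni–NTA-purified transcription factor fused N-terminally to polyhistidine and DsRed, expressed in E. coli BL21-CodonPlus.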
row,Sequence,binding signal
1,CTTGATTTCTACATCGACTAACCAAAGTTAGAGAAAGATGCGGAGTCACCTAGTGCAG,5580 fluorescence intensity (a.u.)
2,ACCTGATAGATTCCAAGATGCACTTGCTCGGATATTGCAGCGGAGTCACCTAGTGCAG,29100 fluorescence intensity (a.u.)
3,AAAATTGCTATAAATTGTATTGGCGAAGAGCAGTTTTGGCCGGAGTCACCTAGTGCAG,13500 fluorescence intensity (a.u.)
4,ACTTTAATAATTGGATTCTGGATATAGGCAATGGTAAAATCGGAGTCACCTAGTGCAG,10200 fluorescence intensity (a.u.)
5,GTATCAATCCCCTTTTCATTTGTTAAAGAAAATGTTAAAACGGAGTCACCTAGTGCAG,5170 fluorescence intensity (a.u.)
6,ATCTCAATCTCAGGTTTGATGAAAACGACCACGTCATCGGCGGAGTCACCTAGTGCAG,3240 fluorescence intensity (a.u.)
7,GCTGTTATTGGTTTCAAATTTTCATCTAGCTCCTAATTGTCGGAGTCACCTAGTGCAG,4460 fluorescence intensity (a.u.)
8,CTAGATAGATTTATATGTTTAAATTTATTAACATCAATATCGGAGTCACCTAGTGCAG,17200 fluorescence intensity (a.u.)
9,ATGATTGACATGTTCGATGACATAATCCAAAGTAATAACGCGGAGTCACCTAGTGCAG,48800 fluorescence intensity (a.u.)
10,CTGGCTGATTGCGTTGTGTATCAAAACTCTATTCCATCTACGGAGTCACCTAGTGCAG,37100 fluorescence intensity (a.u.)
11,GATTCAGTTTAATATATACTAATTGCACAAAACTGAATAACGGAGTCACCTAGTGCAG,9520 fluorescence intensity (a.u.)
12,GTTAATAACCGATTTTGCCATTGAGTGATGAGATTCGAGCCGGAGTCACCTAGTGCAG,3840 fluorescence intensity (a.u.)
13,CAAGAATTGATTGCTTCTGTACTTCACATAGACTAATGTTCGGAGTCACCTAGTGCAG,40500 fluorescence intensity (a.u.)
14,CAAACAAGCCAGCTCAATCAATCATCGAGCTAGCTGAGCTCGGAGTCACCTAGTGCAG,8080 fluorescence intensity (a.u.)
15,AACCATGTTAATTAACAGAGGTTATCTAATCATCTAACAACGGAGTCACCTAGTGCAG,12800 fluorescence intensity (a.u.)
16,CCAAACTGGAAAATTACGGCTCGCAGTATTCGCTTAGGCCCGGAGTCACCTAGTGCAG,25500 fluorescence intensity (a.u.)
17,AATACTTTGCACATCAATTCAATCAACTAGCCTACATAAACGGAGTCACCTAGTGCAG,4860 fluorescence intensity (a.u.)
18,CCATGGAAATTGAAGGGAAACATTCTTAACTATGGACTTGCGGAGTCACCTAGTGCAG,3760 fluorescence intensity (a.u.)
19,TTTGATTGGTAAACCGCTTCTACTCACAAGTCACGTAAAGCGGAGTCACCTAGTGCAG,44800 fluorescence intensity (a.u.)
20,ATACGCTAATTGTTTGAAATTCGTCTCAAGATGTATCGGGCGGAGTCACCTAGTGCAG,30600 fluorescence intensity (a.u.)
21,CATCAATCAGTTATCTTGTAGCTAGCTACCTGATCGAACTCGGAGTCACCTAGTGCAG,24200 fluorescence intensity (a.u.)

row,Sequence,binding signal
1,AAAATTGACTATAAATGATTTGGAGCCGGTAGTTGGCTATCGGAGTCACCTAGTGCAG,51700 fluorescence intensity (a.u.)
2,TGTAACTGAAATGTCAATTTATCGATGTGAATGTCCCGTCCGGAGTCACCTAGTGCAG,39200 fluorescence intensity (a.u.)
3,CTGTACATCAATCTGTGCGTGATTGAAATCCTGGACGATCCGGAGTCACCTAGTGCAG,45600 fluorescence intensity (a.u.)
4,CAATAATGATGGGGTGGTGGAGATGGTGGTGGGTTTGGTCCGGAGTCACCTAGTGCAG,9680 fluorescence intensity (a.u.)
5,CATATTGACAGCTTTGTAATTGCATTTGACAGGTTCAACCCGGAGTCACCTAGTGCAG,60500 fluorescence intensity (a.u.)
6,AAATAAAATAAAATTATTTGGGTTAAAATGATAGAGGTGGCGGAGTCACCTAGTGCAG,3300 fluorescence intensity (a.u.)
7,ACAAATTACATAATTCGCCTGTAAAATGTGAGACAAATTTCGGAGTCACCTAGTGCAG,10400 fluorescence intensity (a.u.)
8,CTAGCTAATCAGTGACCCTTATCGGCTCATCCACTCACAACGGAGTCACCTAGTGCAG,6590 fluorescence intensity (a.u.)
9,AGGAAGTATACGCCAATCATTTGATTCTTCCCCACCTAATCGGAGTCACCTAGTGCAG,3180 fluorescence intensity (a.u.)
10,AGGTTGATTTACTCATCTGTGAAGATTGATTAGTTGCAACCGGAGTCACCTAGTGCAG,42000 fluorescence intensity (a.u.)
11,TCCAATCCCCGTTAATATTAATTTTACAAACGGTAGTCCACGGAGTCACCTAGTGCAG,8140 fluorescence intensity (a.u.)
12,GTGATATACCTTTCAATTAGCAGGCCAAGTAACAGGGAAACGGAGTCACCTAGTGCAG,7320 fluorescence intensity (a.u.)
13,TGGTCCTGATTTATTTGGTACAAACATACTTCTACGTTACCGGAGTCACCTAGTGCAG,4650 fluorescence intensity (a.u.)
14,TGTGATAGAAAGTTAGAAGTTAAGGGAAGTTTGGTGTGAACGGAGTCACCTAGTGCAG,7240 fluorescence intensity (a.u.)
15,GGGATTGAGAGAAAATAATTCCGTACGATAATAGGCATGACGGAGTCACCTAGTGCAG,16000 fluorescence intensity (a.u.)
16,TCGATCAATCAGGCCATAGCTTAGCCCATTGGCACGAACTCGGAGTCACCTAGTGCAG,10700 fluorescence intensity (a.u.)
17,GATTAATTAGCCAATGAGAAGAGCCAAAATAGTACACATCCGGAGTCACCTAGTGCAG,23400 fluorescence intensity (a.u.)
18,CCTAAGTGACAGGATCAGGTCAAACCGTGATGGCACGCCACGGAGTCACCTAGTGCAG,6720 fluorescence intensity (a.u.)
19,ACCAATCAAGCGGAAAGAGATAATCAGGGGTGAGGAGATTCGGAGTCACCTAGTGCAG,5170 fluorescence intensity (a.u.)
20,ATACTAATCTCGTGAAATTTCACGTTCTCGCTGTCACAAACGGAGTCACCTAGTGCAG,4590 fluorescence intensity (a.u.)
21,CCTGATATATCTGTTTTCGACAGCCCATTACTGTTTCTTGCGGAGTCACCTAGTGCAG,3940 fluorescence intensity (a.u.)

# Source: PMC7819943, “Rice protein-binding microarrays: a tool to detect cis-acting elements near promoter regions in rice”
